# According to paper PMC4336329 (PLoS ONE, 2015):
# In all, about 310,000 compounds went through this assay and about 14,000 (4.5%) showed an effect of 50% or more. The effect is printed as a negative number. The list shows a part of the results.
# Target: human ether-à-go-go-related gene (hERG) potassium channel (human, UniProt Q12809)
# Experiment: primary screen, population patch clamp on CHO cells stably expressing hERG
# 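Note: peak tail current of the secondary pulse compared with the same well before compound.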
# human ether-à-go-go-related gene (hERG) potassium channel, sequence (Q12809 whole entry, looked up): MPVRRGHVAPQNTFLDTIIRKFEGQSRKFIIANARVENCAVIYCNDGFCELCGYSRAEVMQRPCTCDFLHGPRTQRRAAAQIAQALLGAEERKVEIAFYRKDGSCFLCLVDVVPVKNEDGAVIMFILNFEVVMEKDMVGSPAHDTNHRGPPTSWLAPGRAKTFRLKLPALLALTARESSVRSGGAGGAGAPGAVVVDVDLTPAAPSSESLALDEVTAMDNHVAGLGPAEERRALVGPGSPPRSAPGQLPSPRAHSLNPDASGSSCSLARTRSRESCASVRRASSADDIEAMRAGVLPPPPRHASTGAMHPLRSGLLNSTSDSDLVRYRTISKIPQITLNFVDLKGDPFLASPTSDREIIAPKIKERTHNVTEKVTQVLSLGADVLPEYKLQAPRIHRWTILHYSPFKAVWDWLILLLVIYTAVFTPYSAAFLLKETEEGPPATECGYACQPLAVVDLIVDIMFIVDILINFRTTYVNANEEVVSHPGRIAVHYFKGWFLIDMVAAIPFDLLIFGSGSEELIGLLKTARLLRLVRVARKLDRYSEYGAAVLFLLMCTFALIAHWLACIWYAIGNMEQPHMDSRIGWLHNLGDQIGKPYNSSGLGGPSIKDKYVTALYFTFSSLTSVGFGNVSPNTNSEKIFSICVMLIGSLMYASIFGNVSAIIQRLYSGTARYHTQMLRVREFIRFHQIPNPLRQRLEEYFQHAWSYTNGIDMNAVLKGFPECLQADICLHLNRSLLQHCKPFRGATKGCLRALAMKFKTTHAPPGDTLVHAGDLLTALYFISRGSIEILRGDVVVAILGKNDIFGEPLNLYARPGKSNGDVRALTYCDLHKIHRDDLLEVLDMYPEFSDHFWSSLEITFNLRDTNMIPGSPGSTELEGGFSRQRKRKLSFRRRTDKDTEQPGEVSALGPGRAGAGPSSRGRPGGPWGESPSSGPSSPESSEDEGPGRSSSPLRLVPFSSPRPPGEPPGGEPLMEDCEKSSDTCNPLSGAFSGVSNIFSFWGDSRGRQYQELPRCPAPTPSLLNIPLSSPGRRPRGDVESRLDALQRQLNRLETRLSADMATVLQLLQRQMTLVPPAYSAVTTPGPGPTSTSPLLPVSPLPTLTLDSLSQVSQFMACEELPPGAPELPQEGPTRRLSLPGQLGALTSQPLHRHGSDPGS
row,Structure (SMILES),"hERG current change (%, negative = inhibition) at 10uM [%]"
1,CCOc1ccc(NC(=O)c2sc(N3CCOCC3)nc2-c2ccccc2)cc1,19.7
2,CCCc1ccc(C(C)NC(=O)c2cnccn2)cc1 (stereo not shown),11.8
3,CCC(=O)N(CC(=O)Nc1sc(C)c(C)c1C(N)=O)Cc1ccc(F)cc1,-22.3
4,COc1cc(/C=C/C(=O)NNc2c(F)c(F)cc(F)c2F)ccc1OC(F)F,12.3
5,O=C(CCNC(=O)Cn1ccc2ccccc2c1=O)NCCc1ccc(Cl)cc1,22.3
6,Cc1ccc(C(C(=O)NC2CCCCC2)N(CCC(C)C)C(=O)CNC(=O)c2ccco2)o1 (stereo not shown),-20.1
7,O=C(CN1C(=O)C2CCCCC2C1=O)Nc1ccccc1N1CCCC1 (stereo not shown),1.43
8,Cc1[nH]c2ccccc2c1C(=O)CN1CCCCC1CCO (stereo not shown),-9.92
9,CN(C)CCCN=Cc1c(-c2ccccc2)[nH]n(-c2nc3ccccc3s2)c1=O,-71
10,O=C(NCc1ccccc1)c1cc(=O)[nH]c2ccccc12,10.3
11,O=C(NCc1cccnc1)Nc1cccc(C(F)(F)F)c1,-4.34
12,Cc1ccc(C(=O)N/C(=C\c2cccs2)C(=O)NCCCn2ccnc2)cc1,-70.3
13,Cc1ccc(C)c(S(=O)(=O)N2CCCCC2CCNC(=O)C(=O)NCCc2ccco2)c1 (stereo not shown),-29.4
14,CC(C)CN1CCC(CN(C)Cc2nc(-c3cnccn3)no2)CC1,7.87
15,COc1ccccc1N1C(=O)c2cccc3c(Cl)ccc(c23)C1=O,13.6
16,CC1CC(C)CN(C(=O)C2CCN(S(=O)(=O)N3CCC4(CC3)OCCO4)CC2)C1 (stereo not shown),21.8
17,O=C(Nc1ncc(Cl)cc1Cl)c1c(F)cccc1Cl,16
18,CC(=O)Nc1ccc2c(c1)OCCOCCOc1cc(NC(C)=O)ccc1OCCOCCOCCO2,-2.81
19,CN1CCN(c2ccc(S(=O)(=O)N3CCCCC3)cc2NC(=O)CSCc2ccccc2)CC1,-20.5
20,O=C1C(Cc2ccc3[nH]ccc3c2)NC(=S)N1c1ccccc1 (stereo not shown),7.61
21,C[C@]12CC(O)C3C(CCC4=CC(=O)CC[C@@]43C)C1CCC2c1csc(-c2ccccc2)n1 (stereo partly shown),22.5
22,CC(Oc1ccc(F)cc1)C(=O)N(CCC1=CCCCC1)c1c(N)n(Cc2ccccc2)c(=O)[nH]c1=O (stereo not shown),-52

row,Structure (SMILES),"hERG current change (%, negative = inhibition) at 10uM [%]"
1,COc1cccc(NC(=O)CSC2=NN3CCCC(=O)N=C3S2)c1,11
2,O=C(Oc1ccc(/C=N/Nc2ccccc2)cc1)c1ccccc1,15.4
3,COc1ccc(OC)c(-c2cc(C(=O)Nc3c(C)nn(Cc4ccc(Cl)cc4)c3C)no2)c1,16.8
4,CCC(C)(C(=O)NC1CCCCC1)N(C(=O)CC1NC(=O)NC1=O)c1c(C)n(C)n(-c2ccccc2)c1=O (stereo not shown),12.8
5,CC(=O)C1=C(O)C(=O)N(c2ccc(O)cc2)C1c1ccc(C)cc1 (stereo not shown),16.9
6,O=S(=O)(c1ccc(Cl)cc1)N1CCCC1c1cccnc1 (stereo not shown),8.49
7,CCN(CC(=O)Nc1ccc(Br)cc1)C(=O)c1nc2nc(C)cc(C)n2n1,-34.6
8,N#CC1C(C#N)N2CCCN2C1c1ccc(Br)cc1 (stereo not shown),17.1
9,CC(=O)c1cccc(NC(=O)c2ccc(OC3CSC3)cc2)c1,22.7
10,CCN(CC)S(=O)(=O)c1ccc(N/N=C/c2ccccc2OCC(=O)O)c([N+](=O)[O-])c1,13.5
11,CCc1nnc(NC(=O)CCC(=O)NC2CCCCCC2)s1,3.71
12,CSc1ccccc1NC(=O)CN(C)CC(=O)NCc1ccccc1,9.48
13,CC1CCN(C(=O)COC(=O)c2cc(=O)[nH]c3ccccc23)CC1,2.57
14,Clc1ccccc1C1=CC(c2ccco2)n2ncnc2N1 (stereo not shown),-11.3
15,CCOc1ccc(/C=C/C(=O)N(C)CC(=O)Nc2cccc(F)c2)cc1OCC,10.6
16,O=C(CSCc1ccc(Br)cc1)Nc1ccccc1C(=O)N1CCOCC1,-3
17,CCOc1ccccc1C(=O)N(C)CC(=O)Nc1ccc(OC)cc1,12
18,O=C(c1ccc2c(=O)n(C3CCCC3)c(=S)[nH]c2c1)N1CCc2ccccc21,8.36
19,Cc1ccc(N(CCC#N)C(=O)CSc2ccc3c(c2)OCCO3)cc1,-37.8
20,COc1ccc(/C=C/C(=O)NCc2nc3ccccc3[nH]2)cc1OC,7.85
21,COCCN1CCN(C(=O)c2ccc3nc(Cc4ccccc4F)oc3c2)CC1,-15.9
22,Cc1occc1-c1nnc(SCC(=O)N2CCOCC2)n1CCc1ccccc1,-18

row,Structure (SMILES),"hERG current change (%, negative = inhibition) at 10uM [%]"
1,COCCSc1ccccc1C(=O)NCc1ccco1,4.38
2,Cc1cc(C)n2cc(COc3ccc4ccccc4c3)nc2n1,-37.6
3,O=C(CN(Cc1ccccc1F)S(=O)(=O)c1ccc(Cl)cc1)NCCC1=CCCCC1,11.7
4,COc1ccccc1N1C(=O)CC(Sc2n[nH]c(-c3cccc(C)c3)n2)C1=O (stereo not shown),12.2
5,Clc1ccccc1CSc1nnc(-c2ccco2)c(-c2ccco2)n1,-12.7
6,COCCCNC(=O)CSc1nc2ccccc2c(=O)n1CCCN1CCCCC1,2.04
7,CSCC(=O)N1CCCC(CNC(=O)c2ccccc2Cl)C1 (stereo not shown),20.4
8,COc1ccc(CCNC(=O)CN2CCN(Cc3ccc(F)cc3)C2=O)cc1OC,5.01
9,Cc1ccc(C(=O)CC2(O)C(=O)N(C)c3ccccc32)s1 (stereo not shown),-9.08
10,O=C(Nc1ccc(C(F)(F)F)cc1)c1ccccc1,20.4
11,CCC(C)c1ccc(NC(=S)NC2CCN(Cc3ccccc3)CC2)cc1 (stereo not shown),-61.8
12,O=C(O)C1CCCN1C(=O)Nc1ccc(F)cc1 (stereo not shown),1.7
13,COc1ccc(CCNC(=O)CSCc2ccc(F)cc2)cc1OC,-8.86
14,Cc1ccc2nc(-c3ccc(NC(=O)CN4CCN(C(=O)c5ccco5)CC4)cc3)sc2c1,9.57
15,O=C(Nc1cccc(S(=O)(=O)N2CCOCC2)c1)c1ccc(N2CCCC2=O)cc1,8.25
16,O=C(Nc1ccncc1)c1ccc(Cl)cc1,-3.8
17,NC(=O)CCC(NC(=S)Nc1ccccc1)C(=O)O (stereo not shown),15.2
18,CC(=O)NS(=O)(=O)c1ccc(NC(=O)CSc2ccccc2)cc1,2.57
19,O=C1C(=O)N(Cc2cccnc2)C(c2cccc(Br)c2)/C1=C(/O)c1ccc2c(c1)OCO2 (stereo not shown),5.15
20,CCNc1nc2c(c(=O)n(C)c(=O)n2C)n1Cc1ccc(Cl)cc1,-7.07
21,Cn1ccnc1Sc1cc(Cl)ccc1[N+](=O)[O-],14.3
22,Cc1ccccc1C(=O)NCC(=O)OC(C)C(=O)Nc1cccc(S(=O)(=O)N2CCOCC2)c1 (stereo not shown),-0.584

row,Structure (SMILES),"hERG current change (%, negative = inhibition) at 10uM [%]"
1,CC(=O)C1=C(C)N(Cc2ccccc2)C(=O)N[C@H]1CCc1ccccc1,-15.8
2,O=C(N/C(=C/c1cccnc1)C(=O)N1CCOCC1)c1ccccc1,-5.27
3,CCCCC(=O)Nc1c2c(nn1-c1cccc(C)c1C)CS(=O)(=O)C2,-0.869
4,O=C(/C=C/c1cccs1)N1CCN(c2ccccc2)CC1,1.88
5,COc1ccc(C2(C(=O)O)CCCC2)cc1,10.4
6,COc1cc2oc3ccc(C#Cc4ccccn4)cc3c(=O)c2cc1OC,6.07
7,O=C(COc1ccc(F)cc1Br)N1CCc2ccccc21,19.9
8,CCCCSc1cc(=O)[nH]c(N)n1,22
9,COc1ccc(OCc2cc(C(=O)NC3Cc4ccccc4C3)no2)c(Cl)c1,7.73
10,Cc1nc2c3cc(F)ccc3n(Cc3ccccc3F)c2s1,-5.77
11,O=C(Nc1cccn(Cc2c(Cl)cccc2Cl)c1=O)c1ccc(Cl)cc1Cl,4.9
12,CCOC(=O)Cc1csc(NC(=O)/C=C/c2ccc(Cl)cc2)n1,-9.29
13,CCN(CC(=O)Nc1ccc(NC(C)=O)cc1)C(=O)CSCC(=O)Nc1ccc(C)cc1,2.95
14,CC(C)Cc1nnc(NC(=O)CCC(=O)N2CCN(CCOC(c3ccccc3)c3ccccc3)CC2)s1,-32.4
15,CC(C)c1ccc(S(=O)(=O)NC2CCS(=O)(=O)C2)cc1 (stereo not shown),6.1
16,CCc1ccc(C(=O)COC(=O)CNC(=O)Cc2ccccc2)cc1,0.382
17,CCSc1nc2sccc2c(=O)n1-c1ccccc1,6.35
18,CCNc1ccccc(C(=O)/C=C/c2ccc3c(c2)OCO3)c1=O,-17.7
19,COc1ccc(CCC(=O)c2ccc(OC)cc2)cc1,-1.41
20,CCC(=O)N1CCN(c2ccc(NC(=O)COc3ccc(C)cc3C)cc2)CC1,-0.478
21,CCCN1C(=O)/C(=C/c2ccncc2)SC1=S,0.555
22,CC1(OC(=O)c2cccs2)C(=O)C=C2C=C(c3ccsc3)OC=C2C1=O (stereo not shown),-0.0759
